Results on six molecules are retold here after patent publication US20230242646A1 (JJP BIOLOGICS SP Z O O, published 2023).

In test [1] the target is T1, recombinant C-terminal polyhistidine-tagged human (extracellular) CD89 (Sino Biological) (human, UniProt P24071 part only).
T1 construct: extracellular domain; bought protein; also called rhuCD89; soluble monomeric rhuCD89
Put plainly: ELISA on plate-coated rhuCD89; titrated supernatant; HRP goat anti-human IgG Fc detection, OD 450 nm [VL1].

Test [2] has as its target T1, recombinant C-terminal …. The experiment in a line: ELISA on plate-coated rhuCD89; titrated supernatant; HRP goat anti-human IgG Fc detection, OD 450 nm [VL2].

T1 sequence (P24071 22-227): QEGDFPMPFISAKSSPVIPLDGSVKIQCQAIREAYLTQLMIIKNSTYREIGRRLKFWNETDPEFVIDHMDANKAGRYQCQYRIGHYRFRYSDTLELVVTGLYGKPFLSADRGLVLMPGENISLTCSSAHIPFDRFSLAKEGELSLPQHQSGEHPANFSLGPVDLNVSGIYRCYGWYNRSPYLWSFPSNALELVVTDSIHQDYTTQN

B1: humanized IgG4/kappa anti-human CD89 monoclonal antibody 10E7 version VH1VL1 (antibody)
heavy: EVQLLESGGGLVQPGGSLRLSCAASGLTFSSYGMSWVRQAPGKGLEWVSTINGNGDITYYPDSVKGRFTISRDNSKNTLYLQMNSLRAEDTAVYYCARDYDYDYAMDYWGQGTLVTVSSASTKGPSVFPLAPCSRSTSESTAALGCLVKDYFPEPVTVSWNSGALTSGVHTFPAVLQSSGLYSLSSVVTVPSSSLGTKTYTCNVDHKPSNTKVDKRV[human IgG4 Fc with S228P (EU numbers) not given here]
light: DIQMTQSPSSLSASVGDRVTITCRASQDIINYLNWYQQKPGKAPKLLIYYTSRLHSGVPSRFSGSGSGTDFTLTISSLQPEDFATYYCQQGKTLPYTFGQGTKLEIKRTVAAPSVFIFPPSDEQLKSGTASVVCLLNNFYPREAKVQWKVDNALQSGNSQESVTEQDSKDSTYSLSSTLTLSKADYEKHKVYACEVTHQGLSSPVTKSFNRGEC
notes: tested as supernatant; IgG4 S239P
On to B1, for which the binding result in test [1] was “binds”.

B2: humanized IgG4/kappa anti-human CD89 monoclonal antibody 10E7 version VH2VL1 (antibody)
heavy: EVQLLESGGGLVQPGGSLRLSCAASGLTFSSYGMSWVRQAPGKGLEWVATINGNGDITYYPDSVKGRFTISRDNSKNTLYLQMNSLRAEDTAVYYCARDYDYDYAMDYWGQGTLVTVSSASTKGPSVFPLAPCSRSTSESTAALGCLVKDYFPEPVTVSWNSGALTSGVHTFPAVLQSSGLYSLSSVVTVPSSSLGTKTYTCNVDHKPSNTKVDKRV[human IgG4 Fc with S228P (EU numbers) not given here]
light: DIQMTQSPSSLSASVGDRVTITCRASQDIINYLNWYQQKPGKAPKLLIYYTSRLHSGVPSRFSGSGSGTDFTLTISSLQPEDFATYYCQQGKTLPYTFGQGTKLEIKRTVAAPSVFIFPPSDEQLKSGTASVVCLLNNFYPREAKVQWKVDNALQSGNSQESVTEQDSKDSTYSLSSTLTLSKADYEKHKVYACEVTHQGLSSPVTKSFNRGEC
notes: tested as supernatant; signal peptide end derived as for m17
In the case of B2, in test [1], the binding result was “binds”.

B3: humanized IgG4/kappa anti-human CD89 monoclonal antibody 10E7 version VH1VL2 (antibody)
heavy: EVQLLESGGGLVQPGGSLRLSCAASGLTFSSYGMSWVRQAPGKGLEWVSTINGNGDITYYPDSVKGRFTISRDNSKNTLYLQMNSLRAEDTAVYYCARDYDYDYAMDYWGQGTLVTVSSASTKGPSVFPLAPCSRSTSESTAALGCLVKDYFPEPVTVSWNSGALTSGVHTFPAVLQSSGLYSLSSVVTVPSSSLGTKTYTCNVDHKPSNTKVDKRV[human IgG4 Fc with S228P (EU numbers) not given here]
light: DIQMTQSPSSLSASVGDRVTITCRASQDIINYLNWYQQKPGKAPKLLIYYTSRLHSGVPSRFSGSGSGTDYTLTISSLQPEDFATYYCQQGKTLPYTFGQGTKLEIKRTVAAPSVFIFPPSDEQLKSGTASVVCLLNNFYPREAKVQWKVDNALQSGNSQESVTEQDSKDSTYSLSSTLTLSKADYEKHKVYACEVTHQGLSSPVTKSFNRGEC
notes: as for B2
B3: the “EC50 (read off the curve)” value in test [2] was about 0.07 µg/mL.

B4: humanized IgG4/kappa anti-human CD89 monoclonal antibody 10E7 version VH3VL1 (antibody)
heavy: EVQLLESGGGLVQPGGSLRLSCAASGLTFSSYGMSWVRQAPGKGLELVATINGNGDITYYPDSVKGRFTISRDNSKNTLYLQMNSLRAEDTAVYYCARDYDYDYAMDYWGQGTLVTVSSASTKGPSVFPLAPCSRSTSESTAALGCLVKDYFPEPVTVSWNSGALTSGVHTFPAVLQSSGLYSLSSVVTVPSSSLGTKTYTCNVDHKPSNTKVDKRV[human IgG4 Fc with S228P (EU numbers) not given here]
light: DIQMTQSPSSLSASVGDRVTITCRASQDIINYLNWYQQKPGKAPKLLIYYTSRLHSGVPSRFSGSGSGTDFTLTISSLQPEDFATYYCQQGKTLPYTFGQGTKLEIKRTVAAPSVFIFPPSDEQLKSGTASVVCLLNNFYPREAKVQWKVDNALQSGNSQESVTEQDSKDSTYSLSSTLTLSKADYEKHKVYACEVTHQGLSSPVTKSFNRGEC
notes: as for B2
As for B4, the “EC50 (read off the curve)” value in test [1] is about 0.05 µg/mL.

B5: humanized IgG4/kappa anti-human CD89 monoclonal antibody 10E7 version VH2VL2 (antibody)
heavy: EVQLLESGGGLVQPGGSLRLSCAASGLTFSSYGMSWVRQAPGKGLEWVATINGNGDITYYPDSVKGRFTISRDNSKNTLYLQMNSLRAEDTAVYYCARDYDYDYAMDYWGQGTLVTVSSASTKGPSVFPLAPCSRSTSESTAALGCLVKDYFPEPVTVSWNSGALTSGVHTFPAVLQSSGLYSLSSVVTVPSSSLGTKTYTCNVDHKPSNTKVDKRV[human IgG4 Fc with S228P (EU numbers) not given here]
light: DIQMTQSPSSLSASVGDRVTITCRASQDIINYLNWYQQKPGKAPKLLIYYTSRLHSGVPSRFSGSGSGTDYTLTISSLQPEDFATYYCQQGKTLPYTFGQGTKLEIKRTVAAPSVFIFPPSDEQLKSGTASVVCLLNNFYPREAKVQWKVDNALQSGNSQESVTEQDSKDSTYSLSSTLTLSKADYEKHKVYACEVTHQGLSSPVTKSFNRGEC
notes: as for B2
As to B5, the “EC50 (read off the curve)” value in test [2] is about 0.05 µg/mL.

B6: humanized IgG4/kappa anti-human CD89 monoclonal antibody 10E7 version VH3VL2 (antibody)
heavy: EVQLLESGGGLVQPGGSLRLSCAASGLTFSSYGMSWVRQAPGKGLELVATINGNGDITYYPDSVKGRFTISRDNSKNTLYLQMNSLRAEDTAVYYCARDYDYDYAMDYWGQGTLVTVSSASTKGPSVFPLAPCSRSTSESTAALGCLVKDYFPEPVTVSWNSGALTSGVHTFPAVLQSSGLYSLSSVVTVPSSSLGTKTYTCNVDHKPSNTKVDKRV[human IgG4 Fc with S228P (EU numbers) not given here]
light: DIQMTQSPSSLSASVGDRVTITCRASQDIINYLNWYQQKPGKAPKLLIYYTSRLHSGVPSRFSGSGSGTDYTLTISSLQPEDFATYYCQQGKTLPYTFGQGTKLEIKRTVAAPSVFIFPPSDEQLKSGTASVVCLLNNFYPREAKVQWKVDNALQSGNSQESVTEQDSKDSTYSLSSTLTLSKADYEKHKVYACEVTHQGLSSPVTKSFNRGEC
notes: as for B2
For the molecule B6, the “EC50 (read off the curve)” value in test [2] is about 0.03 µg/mL.
